Screen size: about 44,000 compounds; about 340 (0.77%) were called active. Roughly 5% stayed inconclusive and do not appear here. Calls follow the shape of the dose curve; as a rule, active = well fitted inhibition curve with a large enough effect; inconclusive = small, poorly fitted or top-dose-only effect; inactive = flat fitted curve, though single readings scatter. The list shows a part of the results.
assay: Acumen qHTS Assay for Inhibitors of the mTORC1 Signaling Pathway in MEF (Tsc2-/-, p53-/-) Cells: Sytravon; settings: phospho-rpS6 immunofluorescence/PI, 24 h; series mostly up to 38.3 µM; activity change, negative = inhibition: at the top concentration;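 also: plate controls were DMSO for no effect and rapamycin for full effect; nearly all actives have a fitted effect of over 50% in size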
Summary of the method: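 Plate MEFs (Tsc2-/-, p53-/-, empty vector) in DMEM/10% FBS; after 24 h add compound, incubate 24 h at 37 degree Celsius; fix in PFA/TX-100, block, stain phospho-rpS6 and 10 uM PI; scan at 488 nm; report % positive cells.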

Compound	activity change, negative = inhibition
COC(=O)c1c(NC(=O)c2ccccc2C(=O)O)sc2c1CCCC2	inactive: 4.16%
CCSc1nc2c(c(=O)[nH]c(=O)n2C)n1CC(O)COc1ccc(Cl)cc1 (centres undefined)	inactive: -6.91%
COc1ccc(N2CCN(C(=O)c3ccc4c(c3)CCN4S(C)(=O)=O)CC2)cc1	inactive: -2.13%
Cc1c(Cl)cccc1NC(=O)Cn1nc(C)c2sc3ccccc3c2c1=O	inactive: -0.377%
Cc1ccc(C)c(S(=O)(=O)c2nnn3c2nc(Nc2ccc(F)c(Cl)c2)c2sccc23)c1	inactive: 0.316%
Cc1nc(SCC(=O)Nc2ccc(Br)cc2)[nH]c(=O)c1Cc1ccccc1	inactive: 2.61%
Cc1ccc2c(c1)N(C(=O)N1CCC(C(=O)NCc3ccco3)CC1)CC(C)O2 (centres undefined)	inactive: 6.32%
Cc1ccc(S(=O)(=O)CCC(=O)N2CCN(c3nc4c(C)c(Cl)ccc4s3)CC2)cc1	inactive: -8.59%
CCc1ccc(OCC(=O)NCc2nc(-c3cccc(C)c3)no2)c(Br)c1	inactive: -5.14%
COc1cc(C(=O)N2CCc3c([nH]c4ccccc34)C2c2ccccc2)cc(OC)c1OC (centres undefined)	inactive: 0.841%
CC(=O)N1CCC2(CC1)OC(=O)C(C)=C2C(=O)Nc1ccccc1C(F)(F)F	inactive: -12.8%
CCOC(=O)C1CCN(C(=O)Cn2ncc3c([nH]c4ccc(C)cc43)c2=O)CC1	inactive: 2.99%
Cc1cccc(N(CC(=O)NCCSc2ccc(Cl)cc2)S(=O)(=O)c2ccccc2)c1C	inactive: -18.5%
COc1ccccc1OCCn1c(-c2ccc(Br)cc2)nc2ccccc2c1=O	inactive: 2.12%
CSc1ncc(C(=O)N2CCN(c3ccc(F)cc3)CC2)c(C)n1	inactive: 2.31%
COc1cccc(-c2nn(C)c3sc(C(=O)N4CCN(c5cccc(C)c5)C(C)C4)cc23)c1 (centres undefined)	inactive: 0.468%
COc1ccccc1CCNC(=O)Cn1ccc2cc(S(=O)(=O)N3CCCCCC3)ccc21	inactive: -14.4%
CCc1nnc(SCc2nc(-c3ccc(OC)cc3)oc2C)c2cc3sccc3n12	inactive: 2.21%
Cc1ccc(C)c(N2CCN(C(=O)c3cc(S(=O)(=O)N4CCCC4)cn3C)CC2)c1	inactive: 11.3%
CCOC(=O)C1CCC(CN(Cc2c(Cl)cccc2Cl)S(=O)(=O)c2ccc(F)cc2)CC1 (centres undefined)	inactive: 6.02%

Compound	activity change, negative = inhibition
Cc1sc2c(c1C)c(=O)n(-c1cccc(C(F)(F)F)c1)c(=O)n2Cc1ccccc1C#N	inactive: -0.44%
Cc1ccccc1NC(=O)CN1C(=O)CCn2nc(-c3cccn3C)cc21	inactive: -0.562%
Cc1ccccc1-c1noc(CSc2nnc(-c3ccncc3)n2-c2ccc(F)cc2)n1	inactive: -4.81%
Cc1ccc(OCCCCn2c(CCNC(=O)C(C)(C)C)nc3ccccc32)cc1	inactive: 5.41%
CCCCn1c(-c2ccc(C)cc2)c(C)n2c3c(=O)n(C)c(=O)n(C)c3nc12	inactive: -2.88%
Cc1ncc(CO)c2c1Oc1nc(-c3ccccc3)nc(SCC(=O)Nc3cccc(C(F)(F)F)c3)c1C2	inactive: -5.72%
CCOc1ccc(N(CC)C(=O)CSc2n[nH]c(-c3ccccc3)n2)cc1	inactive: 1.48%
CCn1cc(C(=O)NCc2ccccc2Cl)c(=O)c2cc(S(=O)(=O)N3CCCCC3)ccc21	inactive: -1.77%
O=C(Cc1ccccc1)Nc1cccc(-c2nc3cccnc3s2)c1	inactive: -7.12%
O=C(NC1CCCC1)c1ccc2c(c1)N(Cc1ccccc1F)C(=O)c1ccccc1S2	inactive: 0.956%
COc1ccc(-c2coc3c2c(C)cc2oc(=O)cc(C)c23)cc1	inactive: 5.21%
Cc1oc(-c2ccc(C(=O)NCc3ccccc3)cc2)nc1CS(=O)(=O)c1ccccc1	inactive: -3.04%
COc1ccc(CCN2C(=O)N(c3ccc(F)cc3)C(=O)C2CC(=O)Nc2ccc(F)c(F)c2)cc1 (centres undefined)	inactive: -1.71%
CCOc1ccc(N(CC(=O)NCc2ccc(Cl)cc2)S(=O)(=O)c2c(C)noc2C)cc1	inactive: 6.53%
COCCCNC(=O)C1CCC(Cn2c(=O)c3sccc3n(Cc3ccc(F)cc3)c2=O)CC1 (centres undefined)	inactive: -0.46%
Cc1c(NC(=O)c2ccc(N3CCC(C)CC3)c([N+](=O)[O-])c2)cccc1-c1nc2ccccc2o1	inactive: -0.634%
Cc1ccc(C(=O)Nc2ccc(OCc3cc(=O)n4c5c(sc4n3)CCCC5)cc2)cc1	inactive: -1.44%
Cc1cccc(N2CCN(C(=O)c3oc(=O)c4ccccc4c3-c3ccccc3)CC2)c1C	inactive: -11.2%
Cc1cc(C)cc(NC(=O)c2sc3nc(-c4cc5ccccc5oc4=O)[nH]c(=O)c3c2C)c1	inactive: 5.3%
COC(=O)c1c(C)sc(-c2c(-c3cccc(Cl)c3)[nH]c3c2c(=O)[nH]c(=O)n3C)c1O	inactive: -4.4%

Compound	activity change, negative = inhibition
COc1ccc(CCNC(=O)CCc2c(C)nc3c(c(C)nn3-c3ccccc3)c2C)c(OC)c1	inactive: -6.15%
CCc1cccc(C)c1NC(=O)C(C)Sc1nc2c(c(=O)[nH]1)CCCC2 (centres undefined)	inactive: 0%
COc1ccccc1C(=O)Nc1nnc(SCc2cc(=O)n3ccc(C)cc3n2)s1	inactive: -6.59%
Cc1ccc(OCc2ccc(-c3nc(C#N)c(N4CCC(C)CC4)o3)o2)cc1	inactive: 1.93%
COc1ccc(-c2noc(N3CCN(c4cccc(C)c4C)CC3)n2)cc1OC	inactive: 0.136%
CCCNC(=O)CCC(=O)N1Cc2ccccc2Oc2ncccc21	inactive: -14.7%
CCc1ccccc1NC(=O)C1CCN(C2=NS(=O)(=O)C(c3ccc(C)c(C)c3)=C2C)CC1	inactive: 0.529%
COc1ccc(C(=O)CN2C(=O)N(c3cc(C)ccc3C)S(=O)(=O)c3ccccc32)cc1	inactive: -2.13%
CCOC(=O)c1c(C)oc2nc(C)nc(NC(C)c3ccccc3)c12 (centres undefined)	inactive: 6.93%
CC1=C(C(=O)OCc2ccc(C)cc2)C(c2ccccc2Cl)CC(=O)N1 (centres undefined)	inactive: -5.12%
Cc1cccc(OCC(=O)Nc2ccc3c(c2)nc(CCNC(=O)c2ccco2)n3C)c1	inactive: 0%
Cc1nc2c3ccccc3nc(NNC(=O)CCC(=O)N3CCN(c4ccccc4)CC3)n2n1	inactive: -4.56%
COc1ccc(Br)cc1CNC(=O)c1ccc2c(c1)nc1n2CCCCC1	inactive: -0.0609%
Cc1cccc(CN2C(=O)c3ccccc3S(=O)(=O)c3ccc(C(=O)N4CCN(c5cc(C)ccc5C)CC4)cc32)c1	inactive: -6.03%
COc1cccc(C(=O)n2nc(-c3ccco3)nc2NCc2cccs2)c1	inactive: 7.46%
CCc1ccc(-c2cc3c(N4CCN(c5ccccc5)CC4)nccn3n2)cc1	inactive: -2.16%
Cc1cccc(-c2nc3nc(C)cc(N4CCN(c5ccccc5)CC4)n3n2)c1	inactive: 0.0994%
COc1ccc(N2CCN(C(=O)CCn3cnc4onc(-c5ccc(F)cc5)c4c3=O)CC2)cc1	inactive: -19.9%
COc1ccc(NC(=O)N2CCN(c3cc(-c4noc(C)n4)ccc3C)CC2)c(OC)c1	inactive: 1.77%
